# Measurements reported in PubChem BioAssay AID686979 (National Center for Advancing Translational Sciences (NCATS), 2013).
# “And” between values parts separate entries of the source, which are not always exact repeats. Equal entries are not always repeated. In all, about 420,000 compounds went through this assay and about 50,000 (12%) were called active. Inconclusive means that the source gave no clear call. Such entries were picked first, then a sample of the others. Calls follow the shape of the dose curve; as a rule, active = well fitted inhibition curve with a large enough effect; inconclusive = small, poorly fitted or top-dose-only effect; inactive = flat fitted curve, though single readings scatter. Potencies beside an inconclusive call are fits to weak or partial responses and may not hold up.
# Assay: qHTS for Inhibitors of human tyrosyl-DNA phosphodiesterase 1 (TDP1): qHTS in cells in presence of CPT; also: nearly all actives have a fitted effect of over 55% in size
# Conditions: chicken DT40 Tdp1-/-;hTDP1 cells + 20 nM CPT, ATP luminescence, 48 h; series mostly up to 46.2 µM
# Procedure, shortened: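 Cell growth measured by CellTiter-Glo luminescence after a minimum 48 h, 37 C compound exposure with 20 nM CPT in Tdp1-knockout DT40 cells stably expressing hTDP1, seeded 400/well; qHTS titration format.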
# Potency is read from the fitted curve at half-maximal effect; tags tell the direction and shape of the fitted curve.
row,SMILES,Potency
1,C/C(Cn1cnc([N+](=O)[O-])n1)=N\NC(=O)c1cccnc1,inactive
2,CN1CCN(C(=O)c2ccc3c(c2)N(Cc2ccccc2)CCS3)CC1,"inconclusive: 16.4 µM [inhibitor, partial curve]"
3,CC1=CC(=NOS(=O)(=O)c2ccc(C)cc2)CC(C)(C)C1,"inconclusive: 25.9 µM [inhibitor, single point]"
4,COc1ccc(C(O)c2ncc(-c3ccccc3C)[nH]2)cc1 (stereo unspecified),inactive
5,C=C(C)CSc1[nH]c(=O)cc(C)c1C#N,inactive
6,COCCNC(=O)C1C(=O)Nc2ccccc2C(=O)N1C1CCCC1 (stereo unspecified),inactive
7,CCN(CC)c1ccc(S(=O)(=O)N2CCOCC2)cc1NC(=O)COC(=O)/C=C/c1ccc(C)o1,active: 13 µM
8,Nc1ccc(SC(F)(F)F)cc1,inactive
9,C=CCn1c(=O)c2c(nc3n2CCN3c2cccc(Cl)c2C)n(C)c1=O,inactive
10,COc1ccc(OC)c(S(=O)(=O)N2CCN(c3ccc(F)cc3)CC2)c1,inactive
11,COC(=O)c1c(NC(=O)CN2CCCC(C)C2)c2c(C)cccc2n1C (stereo unspecified),"inconclusive: 2.91 µM [inhibitor, full curve]"
12,O=C(c1cccc(Cl)c1)N1CCC2CC1c1cc(-c3ccc(F)cc3)ccc12 (stereo unspecified),"inconclusive: 29.1 µM [inhibitor, single point]"
13,CCOC(=O)c1c(C)nn(-c2ccc(NC(=O)c3c(C)noc3C)cc2)c1C,"inconclusive: 9.2 µM [inhibitor, partial curve]"
14,NC(=O)COc1ccc(C(=O)/C=C2/C(=O)Nc3ccccc32)cc1,active: 7.31 µM
15,O=C(CCc1ccccc1)Nc1ccc2c(c1)OCCO2,inactive
16,Cc1ccc(OCC(=O)OC(C)CN2CCCCC2)cc1 (stereo unspecified),inactive
17,CC(=O)c1c(C)[nH]c(C(=O)COC(=O)C2(C)CC2(Cl)Cl)c1C (stereo unspecified),active: 18.4 µM
18,CC(C)n1cc(NC(=O)c2cc(-c3ccccc3)on2)cn1,active: 5.17 µM
19,Nc1ccc(Oc2ccc3nc(-c4ccccc4)c(-c4ccccc4)nc3c2)cc1,"inconclusive: 29.1 µM [inhibitor, single point]"
20,CC(C)(C)c1ccc(C(O)c2ncc(-c3ccccc3F)[nH]2)cc1 (stereo unspecified),"inconclusive: 18.4 µM [inhibitor, single point]"
21,COc1ccc(C(=O)NC(CCSC)C(=O)N2CCCCCC2)cc1 (stereo unspecified),inactive
22,COC(=O)[C@@]12CCCCN1[C@H](c1ccc(-c3ccc(C(C)=O)cc3)cc1)[C@H]1C(=O)N(C)C(=O)[C@H]12,active: 11.6 µM
23,O=C(NCC(c1ccc(Cl)cc1)N1CCCCC1)c1ccccc1 (stereo unspecified),active: 13 µM
24,O=C(C1COc2ccccc2O1)N1CCN(S(=O)(=O)c2cc(F)ccc2F)CC1 (stereo unspecified),inactive
25,CCOc1ccc(C(=O)Nc2cccc3cccnc23)cc1,inactive
26,CCCOc1ccc(C2C(C(=O)c3cc4ccccc4o3)=C(O)C(=O)N2c2cc(C)on2)cc1OC (stereo unspecified),"inconclusive: 20.6 µM [inhibitor, single point]"

row,SMILES,Potency
1,Cc1nc2ccc(C(=O)NCCCn3ccnc3)cn2c1N(C)CC1CCCCC1,"inconclusive: 16.4 µM [inhibitor, single point]"
2,COc1ccc(S(=O)(=O)NC2CC(C)(C)NC(C)(C)C2)c2ccccc12,"inconclusive: 23.1 µM [inhibitor, single point]"
3,COCCn1nc2cc(C(=O)NCC34CC5CC(CC(C5)C3)C4)ccc2c1OC,inactive
4,N#Cc1ccccc1CSc1nc(N2CCCCC2)nc(N2CCCCC2)n1,"inconclusive: 29.1 µM [inhibitor, single point]"
5,CCc1nn(CC(=O)NCCCN2CCOCC2)c(=O)c2cc3cc(F)ccc3n12,inactive
6,COc1ccc(-n2nc(C(=O)NCC(=O)NC(C)C)c3ccccc3c2=O)cc1Cl,inactive
7,CCCOc1ccc(C(=O)N(Cc2cccs2)C2CCS(=O)(=O)C2)cc1 (stereo unspecified),"inconclusive: 18.4 µM [inhibitor, single point] and inconclusive: 16.4 µM [inhibitor, single point]"
8,COc1ccc(CNC(=O)Cn2nc([N+](=O)[O-])c(Br)c2C)cc1,inactive
9,N#CC1(NC(=O)CSc2nc3ncc(Cl)cc3[nH]2)CCCCC1,inactive
10,CCOC(=O)N1CCC(N(C(=O)Nc2ccccc2)C(C)CC)CC1 (stereo unspecified),"inconclusive: 23.1 µM [inhibitor, partial curve]"
11,Cc1cc2nc(-c3ccccc3)c(Cc3cccc(Cl)c3)n2c(C)c1Br,"inconclusive: 18.4 µM [inhibitor, single point]"
12,COc1ccccc1NC(=O)C1=C(C)NC2=C(C(=O)CC(c3ccc(OC)c(OC)c3)C2)C1c1coc2ccccc2c1=O (stereo unspecified),"inconclusive: 25.9 µM [inhibitor, single point]"
13,COc1cccc(NC(=O)Cn2c(=O)n(-c3ccccc3)c(=O)c3sccc32)c1,"inconclusive: 23.1 µM [inhibitor, single point]"
14,Cc1ccccc1S(=O)Cc1ccc(C(=O)NC2CC2)o1 (stereo unspecified),inactive
15,COc1ccc(-c2cc3ccccc3oc2=O)cc1,inactive
16,Cc1cc(C(C)(C)C)oc1C(=O)N(CC(=O)NC1CCCC1)Cc1ccccc1,active: 14.6 µM
17,O=C(Cn1cnc2c(cnn2-c2ccc(F)cc2)c1=O)NCc1ccco1,active: 2.91 µM
18,O=C(Nc1ccc(N2CCCC2)cc1)c1cccc(Cl)c1Cl,"inconclusive: 16.4 µM [inhibitor, single point]"
19,CCCS(=O)(=O)NC(=O)C1(C)CCN(C(=O)c2cc(C)on2)C1 (stereo unspecified),inactive
20,Cc1cccc(NC(=O)C2CCCN(c3nnc(-n4c(C)ccc4C)s3)C2)c1C (stereo unspecified),active: 14.6 µM
21,Cc1ccc(Cc2c(-c3cccc(Cl)c3)nc3ccc(Cl)cn23)cc1,"inconclusive: 23.1 µM [inhibitor, single point]"
22,CSc1nnc2c(n1)c(C)nn2-c1ccc(C)cc1,inactive
23,CC(NC(=O)C(=O)NCCC1=CCCCC1)c1ccccc1 (stereo unspecified),"inconclusive: 23.1 µM [inhibitor, single point]"
24,O=C(Nc1cc(C(F)(F)F)ccc1Cl)c1cccc(N2C(=O)CCC2=O)c1,inactive
25,CCN(CC)c1ccc(C(=O)N2CCC(c3ccncc3)CC2)cc1,active: 20.6 µM
26,COc1ccc(OC)c(-c2csc(NC(=O)Cc3ccccc3F)n2)c1,"inconclusive: 29.1 µM [inhibitor, single point]"

row,SMILES,Potency
1,CCCCNC(=S)NNC(=O)c1cc(C2CC2)nc2ccccc12,"inconclusive: 18.4 µM [inhibitor, single point]"
2,COc1ccc2cc(CN(C(=O)Nc3ccccc3)C3CCCC3)c(=O)[nH]c2c1,"inconclusive: 29.1 µM [inhibitor, partial curve, poor fit]"
3,COc1cccc(CNc2nc3ccccc3n2C(C)C)c1O,active: 20.6 µM
4,CCOc1ccc(/C=N/n2cc(-c3ccccc3)[nH]c2=S)cc1,active: 2.59 µM
5,CCCN(C(=O)Cn1c(=O)oc2cc(Cl)ccc21)c1ccc(C(C)C)cc1,active: 20.6 µM
6,CCOC(=O)C1=CCN(S(=O)(=O)c2cccc(Cl)c2)C1c1ccccc1 (stereo unspecified),"inconclusive: 29.1 µM [inhibitor, single point]"
7,O=C(CCn1cnc(-c2ccccc2)c1-c1ccccc1)N/N=C/c1ccccc1O,active: 5.17 µM
8,COc1ccc(-c2cn(-c3ccc(OC)cc3)c(=S)[nH]2)cc1,"inconclusive: 29.1 µM [inhibitor, single point]"
9,CCOC(=O)C1CCCN(C(=O)c2ccc3c(c2)N(Cc2cccc(Cl)c2)C(=O)c2ccccc2S3(=O)=O)C1 (stereo unspecified),"inconclusive: 20.6 µM [inhibitor, single point]"
10,c1ccc(CN2CCCC3(CCCN(Cc4nc(CC5CC5)no4)C3)C2)cc1 (stereo unspecified),"inconclusive: 16.4 µM [inhibitor, single point]"
11,COc1ccc(C)cc1NC(=O)CN1C(=O)COc2ccc(S(=O)(=O)N3CCCCCC3)cc21,"inconclusive: 29.1 µM [inhibitor, single point]"
12,CC1=C(C(=O)OCc2ccccc2)C(c2ccc(Cl)cc2)NC(=O)N1CCCC(=O)O (stereo unspecified),inactive
13,Cc1cc(N(C)C)ccc1N=Nc1ccc2ncccc2c1,"inconclusive: 29.1 µM [inhibitor, single point]"
14,CC1(c2nc3ccccc3[nH]2)CCC2=Nc3ccccc3CN21 (stereo unspecified),inactive
15,COc1cccc(/C=C/C(=O)NCc2cn3cc(Cl)ccc3n2)c1OC,"inconclusive: 23.1 µM [inhibitor, partial curve, poor fit]"
16,CCc1ccc(S(=O)(=O)c2cn(C)c3cc(OC)c(OC)cc3c2=O)cc1,"inactive and inconclusive: 8.2 µM [inhibitor, partial curve]"
17,O=C(NCc1cc(C(F)(F)F)ccc1Cl)c1cccc2c1C(=O)c1ccc(N3CCOCC3)cc1S2(=O)=O,active: 18.4 µM
18,C=CCOc1c(Br)cc(CNc2ccc(NC(=O)C(C)C)cc2)cc1OCC,"inconclusive: 29.1 µM [inhibitor, single point]"
19,CSc1ccc(CN(C)Cc2cc(=O)oc3c(C)c(C)ccc23)cc1,active: 20.6 µM
20,COc1ccc(Cl)cc1NC(=O)Nc1ccc(C(=O)N2CCCC2)cc1,"inconclusive: 18.4 µM [inhibitor, single point]"
21,O=S(=O)(c1ccc(Cl)c(Cl)c1)c1snnc1-c1ccccc1,active: 2.59 µM
22,CCc1ccc(NC(=O)COc2cccc(-n3cnnn3)c2)cc1,inactive
23,CC(C)(C)CNC(=O)c1cccc2c1C(=O)c1ccc(N3CCCC3)cc1S2(=O)=O,active: 20.6 µM
24,c1ccc2c(c1)COc1c3cc4c(cc3nn1-2)OCO4,"inconclusive: 23.1 µM [inhibitor, single point]"
